Test results as given in publication PMC2808332.
These are yes or no findings as the source states them, for the method shown. Some entries that bind do so weakly or less than the wild type. For some of these results: Sequences can lack the tags named with a protein.

Experiments:
Assay in all cases: peptide or protein array; Invitrogen Protoarray v4.0, about 8,400 human proteins spotted on nitrocellulose-coated glass slides; 10 µg biotinylated tag-free NEMO in 120 µl probing buffer (PBS, 0.5 mM DTT, 5 mM MgCl2, 5% glycerol, 0.05% Triton X-100), 4°C, 1.5 h; bound NEMO detected with labelled streptavidin; hits Z-score > 3, hits of the biotin-GST control array subtracted; both purified
Septin 9 (human) = molecular target: T1, Septin 9 (human) (UniProt Q9UHD8)
T1 sequence: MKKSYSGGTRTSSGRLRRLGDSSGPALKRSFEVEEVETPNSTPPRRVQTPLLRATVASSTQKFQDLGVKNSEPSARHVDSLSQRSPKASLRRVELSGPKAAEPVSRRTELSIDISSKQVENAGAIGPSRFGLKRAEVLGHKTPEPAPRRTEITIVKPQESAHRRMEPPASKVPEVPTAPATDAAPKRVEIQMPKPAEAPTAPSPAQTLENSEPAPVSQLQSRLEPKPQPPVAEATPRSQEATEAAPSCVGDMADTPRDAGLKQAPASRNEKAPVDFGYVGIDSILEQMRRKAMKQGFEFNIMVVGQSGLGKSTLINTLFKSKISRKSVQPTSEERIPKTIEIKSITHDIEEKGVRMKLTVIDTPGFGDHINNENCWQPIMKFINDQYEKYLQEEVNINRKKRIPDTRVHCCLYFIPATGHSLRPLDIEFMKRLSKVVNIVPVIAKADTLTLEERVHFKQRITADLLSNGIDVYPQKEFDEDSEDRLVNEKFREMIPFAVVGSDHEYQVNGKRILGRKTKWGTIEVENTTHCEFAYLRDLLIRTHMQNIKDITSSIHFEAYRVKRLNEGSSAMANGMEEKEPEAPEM

LUC7-like 2 (human) = molecular target: T2, LUC7-like 2 (human) (UniProt Q9Y383)
T2 sequence: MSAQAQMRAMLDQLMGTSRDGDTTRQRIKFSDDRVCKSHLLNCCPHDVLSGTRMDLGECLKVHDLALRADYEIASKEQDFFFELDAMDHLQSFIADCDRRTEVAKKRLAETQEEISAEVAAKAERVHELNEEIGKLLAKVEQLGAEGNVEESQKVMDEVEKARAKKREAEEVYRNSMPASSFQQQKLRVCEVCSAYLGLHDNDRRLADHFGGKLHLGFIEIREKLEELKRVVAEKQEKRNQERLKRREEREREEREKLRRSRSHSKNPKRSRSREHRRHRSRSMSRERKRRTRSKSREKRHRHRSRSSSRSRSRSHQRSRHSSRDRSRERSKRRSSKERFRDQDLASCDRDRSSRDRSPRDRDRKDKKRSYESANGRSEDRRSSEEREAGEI

[1] = molecular target: T3, Sodium channel and clathrin linker 1 (human) (UniProt Q96NL6)
T3 sequence: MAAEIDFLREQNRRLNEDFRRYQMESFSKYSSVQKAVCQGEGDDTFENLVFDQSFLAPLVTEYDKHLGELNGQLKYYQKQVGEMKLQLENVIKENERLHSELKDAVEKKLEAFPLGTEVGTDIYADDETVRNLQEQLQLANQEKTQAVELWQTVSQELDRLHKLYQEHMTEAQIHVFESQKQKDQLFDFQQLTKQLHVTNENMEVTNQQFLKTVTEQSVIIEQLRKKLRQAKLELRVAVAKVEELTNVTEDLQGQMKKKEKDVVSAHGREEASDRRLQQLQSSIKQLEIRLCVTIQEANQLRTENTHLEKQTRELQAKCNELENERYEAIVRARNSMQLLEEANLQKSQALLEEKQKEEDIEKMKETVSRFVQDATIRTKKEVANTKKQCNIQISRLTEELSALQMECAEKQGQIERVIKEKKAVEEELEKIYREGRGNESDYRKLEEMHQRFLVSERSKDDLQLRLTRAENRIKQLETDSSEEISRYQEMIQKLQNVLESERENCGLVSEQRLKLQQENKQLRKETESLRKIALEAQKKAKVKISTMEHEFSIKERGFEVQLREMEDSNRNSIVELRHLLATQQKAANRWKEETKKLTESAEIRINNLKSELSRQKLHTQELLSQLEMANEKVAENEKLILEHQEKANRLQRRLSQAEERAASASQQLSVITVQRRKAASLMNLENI

[2] = molecular target: T4, Arginine and glutamate rich 1 (human) (UniProt Q9NWB6)
T4 sequence: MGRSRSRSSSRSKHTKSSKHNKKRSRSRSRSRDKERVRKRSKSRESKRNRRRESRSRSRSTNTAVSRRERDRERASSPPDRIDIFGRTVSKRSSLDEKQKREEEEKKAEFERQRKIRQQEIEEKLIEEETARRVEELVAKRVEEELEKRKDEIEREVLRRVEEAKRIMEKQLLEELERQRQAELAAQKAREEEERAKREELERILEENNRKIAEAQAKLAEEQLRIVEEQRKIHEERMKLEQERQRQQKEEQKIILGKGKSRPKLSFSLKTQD

Measured: binding

NEMO (NF-κB essential modulator), tag-free, biotinylated (from UniProt Q9Y6K9 1-419)
binds: all assays above
